These results are taken from the supplement of paper PMC11417369.

± gives the standard deviation of the averaged measurements. Some of the results follow.

The test system of this experiment is PfAP2-G AP2 domain (GST-tagged). The experiment can be described thus: gcPBM binding intensity (ln(normalized median fluorescence intensity)); higher = stronger DNA binding. The gist of the method: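 Binding intensity values are the highest Masliner-normalised natural-log median intensity among replicate spots of either probe orientation. The binding step lasted 1 h in 1× PBS with 1% milk, 0.2 mg/ml BSA, 0.5% salmon testes DNA and 0.03% Triton X-100, using GST-tagged P. falciparum DNA-binding domains expressed in E. coli on an Agilent 4 × 180k array of primer-extended double-stranded 36-bp intergenic genomic probes plus negative controls. Alexa488 anti-GST antibody and a 488 nm scan detected bound protein.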
With “TTTAATACTTTTTTCTGTACACACTTGATTTACTAT [XGTACX_site5925]”, the “gcPBM binding intensity (ln)” value came out at 11.5 ± 0.61.

In the case of “AAAAAAAAAAGACACACACACACACGGAGATATATA [CACACA_site6216]”, the “gcPBM binding intensity (ln)” value was 10.1 ± 0.22.

Regarding “AAAATACATAAACGTTCACACATTGAAGATCACAAG [CACACA_site5347]”, the “gcPBM binding intensity (ln)” value worked out at 9.95 ± 0.042.

For TAGGTACATAAATTGGTGCAAAGTGTACATATATAT, the “gcPBM binding intensity (ln)” value amounted to 11.6 ± 0.92.

Take AAAAATACAATTTTCTTGCACTTTGTTGCATTGTAA: the “gcPBM binding intensity (ln)” value amounted to 9.81 ± 0.11.

Consider “AACATATACACGAACACACACACATATAAATAAATA [CACACA_site6380]”, for which the “gcPBM binding intensity (ln)” value was 10.3 ± 0.37.

For “ATATGTTTATTAAATGCATGTCAAGACTTAAGATAT [TGCATGCA_site329]”, the “gcPBM binding intensity (ln)” value was 9.905 ± 0.035.

“TCATCCACATATTGTAGTACAAGATAATTGTTTATT [XGTACX_site1634]”: the “gcPBM binding intensity (ln)” value amounted to 11.3 ± 0.86.

On to “CAAAATATAAAAACATGTACATAAATATTAACGAAT [XGTACX_site2380]”, for which the “gcPBM binding intensity (ln)” value was 11.3 ± 0.83.

For the sequence “TATACACATATATAAAGTACATATATGTGTAAAAAA [XGTACX_site8582]”, the “gcPBM binding intensity (ln)” value worked out at 11 ± 0.64.

For “ATATGCATAAAAAGAGGTACACATAAAATATATATA [XGTACX_site5864]”, the “gcPBM binding intensity (ln)” value is 11.5 ± 0.91.

Regarding “TTTTTTGGGTAAAATTATAAAATATGTATATATAAA [CACACA_negctrl_site27]”, the “gcPBM binding intensity (ln)” value was 9.84 ± 0.11.

Turning to “TTTTTTTTTGTATTTTCACACATTTTTTTTTTTTTT [CACACA_site5407]”, the “gcPBM binding intensity (ln)” value was found to be 9.94 ± 0.16.

On to “TTATTTAAACAAATCACACACAAATATATATACATA [CACACA_site2019]”, for which the “gcPBM binding intensity (ln)” value worked out at 10.07 ± 0.078.

For “CAAAAAATGAAACACACACACACACCCATAAATAAA [CACACA_site1231]”, the “gcPBM binding intensity (ln)” value is 10.3 ± 0.2.

Turning to TCATATATAAAAAGGGTGCTTTTAAAAGAATGGATT, the “gcPBM binding intensity (ln)” value was 10.02 ± 0.028.

With “CAGATATTTGTTCATATACACACTTTTGATAAAATA [CACACA_site1219]”, the “gcPBM binding intensity (ln)” value came to 10.04 ± 0.014.

For the sequence “AATATTTTTTGTTTTACACACATATATAGATATATA [CACACA_site7662]”, the “gcPBM binding intensity (ln)” value stood at 9.915 ± 0.021.

For “TATAATCATATATACACACACATATATATATATATA [CACACA_site2168]”, the “gcPBM binding intensity (ln)” value amounted to 10.2 ± 0.61.

Regarding “CATATTTTCAAAATTAGTACATAAAAAAAAAAATAT [XGTACX_site3101]”, the “gcPBM binding intensity (ln)” value was 11.4 ± 0.76.

For the sequence “GACCTACAAAAAGGCACACATATACGCATACATACA [CACACA_site2179]”, the “gcPBM binding intensity (ln)” value stood at 10.5 ± 0.26.

Regarding “TCTTCCGCTTTATGGAGTACTATGGTAGCCTTTCCT [XGTACX_site2958]”, the “gcPBM binding intensity (ln)” value is 11.2 ± 0.76.

Turning to “AATGGAAATGTAAAATGTACAGGACGCACACACATA [XGTACX_site7788]”, the “gcPBM binding intensity (ln)” value stood at 11.1 ± 0.54.

Turning to “AAAAAAAATTAAAATAAATTAAAAAGTAATTATATA [GTGCAC_negctrl_site615]”, the “gcPBM binding intensity (ln)” value is 9.31 ± 0.33.

Consider “AATGAGAAGGACTGCACACTAAAATGGAAGGAGAAA [CACACA_site1575]”, for which the “gcPBM binding intensity (ln)” value worked out at 10.6 ± 0.59.

Regarding “ATGTTGTGTATATATACACACATACATATATATATA [CACACA_site8461]”, the “gcPBM binding intensity (ln)” value was 10.4 ± 0.43.

With “GAAATATTTAGACACACACACAAACATATAAATATA [CACACA_site6980]”, the “gcPBM binding intensity (ln)” value is 10.07 ± 0.049.

For “GATTATATTATATATTAAATATAAATATGTATTATA [TGCATGCA_negctrl_site66]”, the “gcPBM binding intensity (ln)” value was 9.8 ± 0.085.

With “GAAAAAATTTTATGGTGTACTTTATTTATTTATATA [XGTACX_site6323]”, the “gcPBM binding intensity (ln)” value is 11.5 ± 1.

“GGAAAGACAGTTCACAGTACCCAGTAAACTCTACGG [XGTACX_site2557]”: the “gcPBM binding intensity (ln)” value was 10.6 ± 0.47.

For the sequence “AAAATATAGTAATATATATATGTATATTATTTGTGG [CACACA_negctrl_site1590]”, the “gcPBM binding intensity (ln)” value amounted to 9.6 ± 0.22.

As for “TTATTACATGTTACTTAACACACATCTGGTGAAATA [CACACA_site7939]”, the “gcPBM binding intensity (ln)” value is 9.98 ± 0.014.

As to “AAAATAAATAAATAAATAAATATATATATATATATA [XGTACX_negctrl_site345]”, the “gcPBM binding intensity (ln)” value was found to be 9.72 ± 0.23.

“TATAGGTATATATTATGTACTTATAATTATATAGAT [XGTACX_site1912]”: the “gcPBM binding intensity (ln)” value was found to be 11.3 ± 0.74.

For the sequence “ATATATAATATTTTTATTTTTATTTTTTTTTTATGA [TGCATGCA_negctrl_site577]”, the “gcPBM binding intensity (ln)” value is 9.28 ± 0.21.

In the case of “ATTAAGTTCAAATGTAGTACGTGTAAAAAAAAAAAA [XGTACX_site1578]”, the “gcPBM binding intensity (ln)” value came out at 11.4 ± 0.83.

Take “TACCATGTTCAAATTACACACATATAATGTAATATA [CACACA_site5150]”: the “gcPBM binding intensity (ln)” value came out at 10.1 ± 0.18.

As for “TTTATATATGTAAATGCACACATATGTGTATATACT [CACACA_site8493]”, the “gcPBM binding intensity (ln)” value was 10.3 ± 0.3.

Regarding “TTTTTTTTTTTTTTTATAAAAGATAATTTTTTTTTA [CACACA_negctrl_site133]”, the “gcPBM binding intensity (ln)” value was determined as 9.38 ± 0.2.

Consider “CATTTATATTATAAATGTACAAAGTTCGTTTGTTCC [XGTACX_site1305]”, for which the “gcPBM binding intensity (ln)” value was 10.7 ± 0.3.

Take “TTGTATATATATGGAAAAATATATATATATATATAT [GTGCAC_negctrl_site591]”: the “gcPBM binding intensity (ln)” value is 10.3 ± 0.83.

As for “TTTATTTATAGACACACACACAAAAAAAAAAAAAAA [CACACA_site7280]”, the “gcPBM binding intensity (ln)” value came to 10 ± 0.62.

With “ATACGATTGAAACATTGTACATGAATATAAAAAAAT [XGTACX_site5704]”, the “gcPBM binding intensity (ln)” value was 10.8 ± 0.51.

For “TGTCTTTAAATTTCTCAACACACAGTTATAAAAAAT [CACACA_site8930]”, the “gcPBM binding intensity (ln)” value turned out to be 9.94 ± 0.099.

In the case of “GGGTCAAGTAAGCTGTTCCTCTTTTTCTTTCTCACT [GTGCAC_negctrl_site473]”, the “gcPBM binding intensity (ln)” value was determined as 10.16 ± 0.057.

With “TATAAATTTAAAATGACACACACTAATATTATTTAA [CACACA_site8334]”, the “gcPBM binding intensity (ln)” value is 10.1 ± 0.11.

With “TTCTAAAAAAATAAAATTATCAAGGTTTTTAAACGT [CACACA_negctrl_site308]”, the “gcPBM binding intensity (ln)” value amounted to 9.71 ± 0.071.

For TAAACGTTAGTATGTGTGCACATTAGTAATTTAAAA, the “gcPBM binding intensity (ln)” value was 10.5 ± 0.3.

For “TTTTTATTATTCTTAAGGATATAACAAAAAAGAAAA [XGTACX_negctrl_site584]”, the “gcPBM binding intensity (ln)” value came to 9.87 ± 0.21.

Turning to “ATTAATATTATTAGAAGTACTAATAGTAGTATAACT [XGTACX_site1325]”, the “gcPBM binding intensity (ln)” value amounted to 11.2 ± 0.74.

As for “TAAATAAATATATATTCACACACAAACATATATATA [CACACA_site9332]”, the “gcPBM binding intensity (ln)” value amounted to 9.94 ± 0.23.

On to “TCTTCATAAAAATAAAGTACATTATATATATAAATA [XGTACX_site3775]”, for which the “gcPBM binding intensity (ln)” value amounted to 11.3 ± 0.98.

Regarding “TCAAAGCACACATACACACACATATAGATTTATATA [CACACA_site6272]”, the “gcPBM binding intensity (ln)” value was determined as 10 ± 0.12.

Consider “AAAATATAAATCTAAGCATGCAAAAAAAATTTATAA [TGCATGCA_site1008]”, for which the “gcPBM binding intensity (ln)” value came out at 9.705 ± 0.064.

Turning to “TATTGTTTTAAAGAGACATGCAATATATATTATTCC [TGCATGCA_site752]”, the “gcPBM binding intensity (ln)” value is 9.775 ± 0.078.

Take “GCATCCCTTTTTATGTGTACATACAAAGGCAATTAC [XGTACX_site6977]”: the “gcPBM binding intensity (ln)” value amounted to 11.3 ± 0.8.

For “TTATTTAAAAAAAAGTGTACCCATATATTATAAATC [XGTACX_site8374]”, the “gcPBM binding intensity (ln)” value stood at 11.5 ± 0.91.
